# Assay results published in PubChem BioAssay AID504332 (National Center for Advancing Translational Sciences (NCATS), 2011).
# Among all 350,000 compounds or so, about 31,000 (8.9%) were called active. Inconclusive means that the source gave no clear call. Such entries were picked first, then a sample of the others. The call rests on the fitted dose curve; in most records, active means well fitted inhibition curve with a large enough effect; inconclusive means small, poorly fitted or top-dose-only effect; inactive means no such curve, though single readings can be large or run the other way. Where the call is inconclusive, the potency comes from a doubtful curve fit.
# Biological target: Histone-lysine N-methyltransferase EHMT2 (Homo sapiens) (UniProt Q96KQ7)
# Test: qHTS Assay for Inhibitors of Histone Lysine Methyltransferase G9a; further: nearly all actives have a fitted effect of over 75% in size
# Conditions: G9a H3K9 monomethylation, AlphaScreen, 2 h; activity, negative = inhibition: at 59 µM (top of the series) unless noted
# Method in brief: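 AlphaScreen detection with an anti-monomethyl H3K9 antibody quantified product after a 2 h room-temperature reaction containing 500 nM biotinylated H3K9 peptide, 20 µM SAM and 20 nM enzyme, which had been preincubated 15 min with compound.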
# On the % scale 0 is the no-effect control and ±100 the full control effect; potency means the concentration at half of the fitted maximal effect; tags describe the fitted curve by direction and shape.
# UniProt Q96KQ7, sequence (Q96KQ7 whole entry, looked up): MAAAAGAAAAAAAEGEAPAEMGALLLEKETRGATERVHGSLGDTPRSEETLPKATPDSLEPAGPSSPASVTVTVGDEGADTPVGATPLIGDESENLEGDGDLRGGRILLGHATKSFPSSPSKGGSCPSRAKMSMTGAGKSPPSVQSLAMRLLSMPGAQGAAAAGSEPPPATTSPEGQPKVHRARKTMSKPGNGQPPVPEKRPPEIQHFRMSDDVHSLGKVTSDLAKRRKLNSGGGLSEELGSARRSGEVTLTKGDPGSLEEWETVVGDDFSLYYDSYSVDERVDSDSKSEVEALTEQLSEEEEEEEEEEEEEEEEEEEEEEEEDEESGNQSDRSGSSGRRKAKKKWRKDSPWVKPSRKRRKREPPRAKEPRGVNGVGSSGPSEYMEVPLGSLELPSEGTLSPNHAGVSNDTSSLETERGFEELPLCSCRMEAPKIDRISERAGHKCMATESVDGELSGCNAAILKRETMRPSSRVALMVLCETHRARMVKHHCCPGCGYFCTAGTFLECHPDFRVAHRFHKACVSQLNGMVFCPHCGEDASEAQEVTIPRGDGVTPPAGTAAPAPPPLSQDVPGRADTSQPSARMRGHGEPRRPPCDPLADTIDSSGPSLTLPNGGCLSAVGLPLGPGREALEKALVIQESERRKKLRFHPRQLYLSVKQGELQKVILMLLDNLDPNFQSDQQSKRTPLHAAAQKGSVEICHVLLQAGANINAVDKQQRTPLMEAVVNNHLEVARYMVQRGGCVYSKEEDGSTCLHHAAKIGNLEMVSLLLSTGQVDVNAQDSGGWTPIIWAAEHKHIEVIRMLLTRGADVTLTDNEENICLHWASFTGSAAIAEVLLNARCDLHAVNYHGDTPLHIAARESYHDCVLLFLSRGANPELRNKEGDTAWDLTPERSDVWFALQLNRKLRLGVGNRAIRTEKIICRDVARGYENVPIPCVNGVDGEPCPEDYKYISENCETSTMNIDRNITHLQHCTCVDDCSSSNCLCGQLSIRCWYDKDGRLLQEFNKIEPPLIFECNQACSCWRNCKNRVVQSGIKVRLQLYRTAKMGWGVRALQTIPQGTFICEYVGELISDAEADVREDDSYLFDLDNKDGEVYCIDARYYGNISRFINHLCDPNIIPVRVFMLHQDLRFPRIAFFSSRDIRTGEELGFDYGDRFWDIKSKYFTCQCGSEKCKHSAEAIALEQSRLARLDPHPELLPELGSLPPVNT
SMILES,Potency,"activity, negative = inhibition"
CCN(CC)c1ccc(NC(=O)COC(=O)c2ccc3ccccc3n2)cc1,"inconclusive: 2 µM [inhibitor, partial curve, poor fit]",–
N#Cc1c(NC(=O)CSc2ncnc3c2cnn3-c2ccccc2Cl)sc2c1CCCC2,"inconclusive: 89.1 µM [inhibitor, single point]",–
COc1ccc2nc(-c3ccc(Cl)cc3)cc(C(=O)O)c2c1,"inconclusive: 79.4 µM [inhibitor, single point]",–
COC(=O)[C@H](Cc1ccccc1)NC(=O)[C@@H](N)CC(=O)OCc1ccccc1,–,inactive: 5.48% [at 0.501 µM]
FC(F)(F)c1cccc(NCc2cn3cccnc3n2)c1,–,inconclusive: -79.9% [inhibitor] [at 102 µM]
N=c1c(C(=O)NCc2ccco2)cc2c(=O)n3ccccc3nc2n1Cc1ccc(Cl)cc1,"inconclusive: 6.31 µM [inhibitor, single point]",–
CC1Cc2ccccc2N1CC(=O)NC(=O)NC(C)(C)C (stereo unspecified),"inconclusive: 39.8 µM [inhibitor, partial curve, poor fit]",–
CCN1/C(=C/c2cccc[n+]2C)Sc2ccc(OC)cc21,active: 50.1 µM,–
Cc1ccc(NC(=O)Cn2c(=O)n(Cc3ccco3)c(=O)c3sc4ccccc4c32)cc1C,–,inactive: -5.32%
CCOc1ccc(CCNC(=O)c2cnc3c(-c4ccc(F)cc4)c(C)nn3c2C)cc1OCC,–,inactive: 11.3%
COc1ccc2c(c1)sc1ncc(C(=O)NCc3ccc(OC(C)C)cc3)c(=O)n12,–,inactive: 7.89%
CS(=O)(=O)N(CC(=O)Nc1cccc(Br)c1)Cc1ccccc1,"inconclusive: 0.562 µM [inhibitor, partial curve, poor fit]",–
CCN(CC)CCNC(=O)c1ccc2c(c1)NC(=O)c1ccccc1S2,active: 44.7 µM,–
Cc1ccc(S(=O)(=O)c2nc(NN(C)C)sc2Cl)cc1,"inconclusive: 70.8 µM [inhibitor, partial curve, poor fit]",–
COc1cccc(N2CCN(C3CCCC(C)C3)CC2)c1 (stereo unspecified),"inconclusive: 79.4 µM [inhibitor, single point]",–
COc1cc(/C=N/N(C)c2ccccc2)ccc1O,active: 14.1 µM,–
COc1ccc(CN2CCN(Cc3ccco3)CC2)cc1,"inconclusive: 1 µM [inhibitor, single point]",–
N#C/C(C(N)=O)=c1/ccc2c(c1)N1C3=C(CCCC3)CC3CCCCC31N=2 (stereo unspecified),active: 3.98 µM,–
COC(=O)c1sc(NC(=O)c2ccco2)c(C#N)c1C,active: 35.5 µM,–
Cc1nn(-c2ccccc2)c2c1C(c1cccnc1)N1C=C(S(=O)(=O)N3CCCCC3)C=CC1=N2 (stereo unspecified),active: 79.4 µM,–
COc1cccc(CN(C)Cc2nc3cc(C(F)(F)F)ccc3c(=O)[nH]2)c1,"inconclusive: 79.4 µM [inhibitor, single point]",–
N=c1c(S(=O)(=O)c2ccc(Cl)cc2)cc2c(=O)n3ccccc3nc2n1Cc1cccnc1,"inconclusive: 89.1 µM [inhibitor, single point]",–
COc1cc(NS(=O)(=O)c2ccc(NC(=O)/C(=C/c3ccccc3Cl)NC(=O)c3ccccc3)cc2)nc(OC)n1,"inconclusive: 31.6 µM [inhibitor, single point]",–
CCCCCOC(=O)c1ccc(OC(=O)c2cncc(Br)c2)cc1,"inconclusive: 89.1 µM [inhibitor, single point]",–

SMILES,Potency,"activity, negative = inhibition"
Cc1n[nH]c(=O)c2c(NC(=O)CSc3nnc(C4CC4)n3C)oc(C)c12,active: 39.8 µM,–
O=C(CCC(=O)Nc1ccccc1Cl)NN=C1CCCC1,–,inactive: -3.37% [at 102 µM]
CCOc1ccccc1NC(=O)CSc1nc2cc(OC)c(OC)cc2c2nc(-c3ccccc3)nn12,–,inactive: -17.8%
COc1ccccc1NCC(O)COc1ccc(C(C)(C)C)cc1 (stereo unspecified),active: 7.94 µM,–
c1ccc(-c2nc(NCC3CCCO3)c3oc4ccccc4c3n2)cc1 (stereo unspecified),active: 44.7 µM,–
Fc1ccc(NC(=S)NNc2ncc(C(F)(F)F)cc2Cl)c(F)c1,"inconclusive: 35.5 µM [inhibitor, partial curve, poor fit]",–
CCOC(=O)C1CCCN(CC(=O)/C=C2/N(C)c3ccccc3C2(C)C)C1 (stereo unspecified),"inconclusive: 28.2 µM [inhibitor, single point]",–
O=C(Cn1c(=O)oc2ccccc21)Nc1ccc(C(=O)O)cc1,–,inactive: 2.92%
CCn1c(=O)c(C(=O)Nc2ccc(C(C)=O)cc2)nc2ccccc21,–,inactive: 3.54%
CCc1ccc(C2=NN(CCC(=O)NC(C)c3ccc4c(c3)OCCO4)C(=O)CC2)cc1 (stereo unspecified),"inconclusive: 79.4 µM [inhibitor, partial curve, poor fit]",–
Cc1ccc(C)c(CN2C(=O)c3ccccc3S(=O)(=O)c3ccc(C(=O)N4CCN(c5ccccc5)CC4)cc32)c1,"inconclusive: 22.4 µM [inhibitor, partial curve, poor fit]",–
COc1ccc(N2CCN(C(=O)c3cc(-c4cc(OC)ccc4OC)nc4ccccc34)CC2)cc1,active: 25.1 µM,–
CC(OC(=O)c1cc(S(=O)(=O)Nc2ccc(F)cc2)ccc1Cl)C(=O)Nc1ccc2c(c1)OCCO2 (stereo unspecified),"inconclusive: 79.4 µM [inhibitor, single point]",–
Cn1nc(C(=O)N2CCC(C(N)=O)CC2)c2c1-c1ccccc1SC2,"inconclusive: 89.1 µM [inhibitor, single point]",–
CCOC(=O)N1CCN(C(=O)C2CCN(S(=O)(=O)c3ccc(Cl)cc3)CC2)CC1,"inconclusive: 89.1 µM [inhibitor, partial curve, poor fit]",–
CCOC(=O)CC12CN3CN(C1)CC(CC(=O)OCC)(C3)C2=O,–,inactive: -48.1% [at 102 µM]
COCCCNc1oc(-c2cccs2)nc1S(=O)(=O)c1ccc(C)cc1,–,inconclusive: -66.3% [inhibitor]
CCN(CC(=O)Nc1cccc(C#N)c1)CC(=O)Nc1cccc(OC)c1,"inconclusive: 50.1 µM [inhibitor, partial curve, poor fit]",–
O=C(Nc1ccccn1)C12CC3CC(CC(C3)C1)C2,"inconclusive: 31.6 µM [inhibitor, partial curve, poor fit]",–
Cn1c(SCC(=O)N2CCCc3ccccc32)nnc1-c1ccccc1,"inconclusive: 0.158 µM [inhibitor, partial curve, poor fit]",–
O=C(NC(=S)Nc1ccc2[nH]ncc2c1)c1ccccc1,–,inconclusive: -87.8% [inhibitor]
N#Cc1cc([N+](=O)[O-])c(-n2nnc3ccccc32)c([N+](=O)[O-])c1,"inconclusive: 17.8 µM [inhibitor, single point]",–
O=C(Nc1cc(S(=O)(=O)N2CCOCC2)ccc1N1CCCCC1)c1ccc(Cl)cc1,"inconclusive: 1.78 µM [inhibitor, partial curve, poor fit]",–
COc1ccccc1C(=O)COC(=O)CNC(=O)c1ccc(Br)o1,active: 50.1 µM,–

SMILES,Potency,"activity, negative = inhibition"
Cc1ccccc1Nc1c(-c2ccco2)nc2c(C)cccn12,active: 14.1 µM,–
Cc1cc([N+](=O)[O-])ccc1NC(=O)CN1C2CCC1CC(NC(=O)NC13CC4CC(CC(C4)C1)C3)C2 (stereo unspecified),–,inactive: -9.39% [at 102 µM]
COc1ccc([N+](=O)[O-])cc1NCC(=O)c1ccc(C)cc1,"inconclusive: 89.1 µM [inhibitor, single point]",–
Cc1cc(C)c(OCC(=O)Nc2ccccc2N2CCCCC2)c(C)c1,–,inactive: -31.7% [at 102 µM]
CC(=O)Nc1ccc(S(=O)(=O)NNC(=O)COc2cccc(C)c2)cc1,active: 6.31 µM,–
O=C(Nc1cc(S(=O)(=O)N2CCOCC2)ccc1OCC(F)(F)F)C1=COCCO1,"inconclusive: 89.1 µM [inhibitor, single point]",–
Cc1cc(-c2csc(NC(=O)C3=COCCO3)n2)c(C)n1C,active: 50.1 µM,–
Cc1ccc(S(=O)(=O)n2[nH]c(=O)c(CCO)c2C)cc1,"inconclusive: 89.1 µM [inhibitor, single point]",–
Cc1c(C(=O)O)sc(=S)n1-c1ccccc1,–,inactive: -5.93% [at 102 µM]
CCOC(=O)/C(C#N)=C/c1c(N2CCN(Cc3ccc4c(c3)OCO4)CC2)nc2c(C)cccn2c1=O,"inconclusive: 8.91 µM [inhibitor, full curve]",–
Cc1[nH]c2ccc(C(=O)OC(C)C(=O)N(C)c3ccccc3)cc2c1C (stereo unspecified),–,inactive: 0.897% [at 0.501 µM]
CCOCCCNC(=O)c1[nH]c2cc(C)ccc2c1Sc1ccc(Cl)cc1,"inconclusive: 31.6 µM [inhibitor, single point]",–
CC1=Nn2c(nnc2-c2ccccc2)SC1,–,inconclusive: -75.2% [inhibitor]
COc1ccc(Cc2nnc(Nc3ccccc3)s2)cc1Br,–,inactive: 12% [at 102 µM]
Cc1cccc(NC(=O)Cn2c(=O)n(CCCS(=O)(=O)C3CCCCC3)c(=O)c3ccccc32)c1,–,inactive: 9.38%
O=c1c2c3c(sc2n(CCN2CCCCC2)c(=O)n1Cc1ccco1)CCCCC3,active: 50.1 µM,–
CC12C=CC3(CN(Cc4ccccc4)C(=O)C3C1C(=O)NCc1ccco1)O2 (stereo unspecified),"inconclusive: 89.1 µM [inhibitor, partial curve, poor fit]",–
O=C(Nc1nn[nH]n1)c1ccc(S(=O)(=O)N2CCCCC2)cc1,active: 50.1 µM,–
CCCCN(CCCC)CCNC(=O)Cn1nc(CC)n2c(cc3sc(C)cc32)c1=O,–,inactive: -10.3%
O=C(Nc1ccc2c(c1)OCO2)c1cc2ncc(Br)cn2n1,–,inconclusive: -52.1% [inhibitor]
O=C(N1CCCCCC1)n1c(Cc2ccccc2)nc2ccccc21,"inconclusive: 31.6 µM [inhibitor, single point]",–
COc1ccc2c(c1)c(C(=O)O)c(C)n2-c1ccc(Cl)cc1,–,inactive: -10.1% [at 102 µM]
Cc1cc(C)cc(NC(=O)CSc2nnc(-c3ccccc3)n2N)c1,"inconclusive: 79.4 µM [inhibitor, single point]",–
